Laboratory results reported in article PMC4336329 (PLoS ONE, 2015).
The campaign covered roughly 310,000 compounds. About 14,000 (4.5%) showed an effect of 50% or more. Effects have a minus sign here. Some of the results follow.

What follows are molecules tested against human ether-à-go-go-related gene (hERG) potassium channel (human, UniProt Q12809) (assay: primary screen, population patch clamp on CHO cells stably expressing hERG).
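Further: peak tail current of the secondary pulse compared with the same well before compound.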

human ether-à-go-go-related gene (hERG) potassium channel, sequence (Q12809 whole entry, looked up): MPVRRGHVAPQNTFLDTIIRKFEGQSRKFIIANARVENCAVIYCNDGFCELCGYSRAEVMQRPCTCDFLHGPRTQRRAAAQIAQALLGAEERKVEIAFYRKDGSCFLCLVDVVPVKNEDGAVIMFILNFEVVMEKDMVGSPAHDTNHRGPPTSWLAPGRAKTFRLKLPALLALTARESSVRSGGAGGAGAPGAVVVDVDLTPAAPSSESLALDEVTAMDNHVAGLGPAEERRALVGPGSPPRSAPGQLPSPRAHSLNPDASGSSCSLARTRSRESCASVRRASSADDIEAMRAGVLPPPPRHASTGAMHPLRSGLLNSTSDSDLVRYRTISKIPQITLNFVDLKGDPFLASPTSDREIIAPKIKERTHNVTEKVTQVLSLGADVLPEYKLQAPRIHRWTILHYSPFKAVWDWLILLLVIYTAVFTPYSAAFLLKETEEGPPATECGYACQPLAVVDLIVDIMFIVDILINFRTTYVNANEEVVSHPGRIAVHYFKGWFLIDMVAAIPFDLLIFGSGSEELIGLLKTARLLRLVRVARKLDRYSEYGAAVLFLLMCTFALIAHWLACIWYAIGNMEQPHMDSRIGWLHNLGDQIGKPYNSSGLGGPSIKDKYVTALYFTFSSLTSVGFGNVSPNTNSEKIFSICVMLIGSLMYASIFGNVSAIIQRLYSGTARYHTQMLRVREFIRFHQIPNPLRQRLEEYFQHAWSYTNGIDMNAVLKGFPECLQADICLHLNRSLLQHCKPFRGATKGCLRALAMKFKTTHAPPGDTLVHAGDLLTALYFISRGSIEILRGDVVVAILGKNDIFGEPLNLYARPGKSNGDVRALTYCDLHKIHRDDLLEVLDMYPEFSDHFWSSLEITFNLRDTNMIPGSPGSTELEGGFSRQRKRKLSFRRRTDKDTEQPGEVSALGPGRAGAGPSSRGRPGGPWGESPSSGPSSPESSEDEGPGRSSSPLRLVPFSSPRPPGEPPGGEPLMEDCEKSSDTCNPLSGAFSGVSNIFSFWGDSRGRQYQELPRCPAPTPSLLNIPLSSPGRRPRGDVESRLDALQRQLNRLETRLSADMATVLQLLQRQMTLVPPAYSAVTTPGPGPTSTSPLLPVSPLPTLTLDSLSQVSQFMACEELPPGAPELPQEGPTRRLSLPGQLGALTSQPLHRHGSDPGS

Going from `Cl.c1ccc(CNc2ncnc3ccccc23)cc1` to `O=C1CC(Cc2ccccc2)C(=O)N1c1ncccn1` (centres unmarked), the “hERG current change (%, negative = inhibition) at 10uM” value falls from 4.3% to 2.7%.

Compared with `NC(=O)Nc1ccc(C(=O)OCC(=O)N2CCCC2=O)cc1`, `CCOC(=O)c1ccc(NC2OC(=O)c3ccccc32)cc1` (centres unmarked) is lower in “hERG current change (%, negative = inhibition) at 10uM” value: 14.6% for the first, -0.927% for the second.

First: COc1ccc(CNCc2cccc(OC)c2OC)cc1Br.O=C(O)C(=O)O
Second: CCOC(=O)C(Cc1c[nH]c2ccccc12)NC(=O)c1ccccc1Br (centres unmarked)
The “hERG current change (%, negative = inhibition) at 10uM” value of the first is lower: -34.8% for the first, 6.02% for the second.

First: COc1ccccc1-n1ccn(CC(=O)Nc2ccc(C)cc2Cl)c(=O)c1=O
Second: CC(=O)c1cccc(NC(=O)Cn2cnc(S(=O)(=O)N3CCc4ccccc43)c2)c1
The “hERG current change (%, negative = inhibition) at 10uM” value of the first is lower: -23% for the first, 17.1% for the second.

Compared with `CCOc1ccc(OCCC(=O)OCC(=O)NCc2ccc(Cl)cc2)cc1`, `CCN(CC)CCNC(=O)COc1ccc(OC)cc1` is lower in “hERG current change (%, negative = inhibition) at 10uM” value: 8.85% for the first, 2.22% for the second.

First: O=C(NCc1ccc(F)cc1)C1CCC(CNS(=O)(=O)c2ccccc2)CC1 (centres unmarked)
Second: O=C(CSc1ccccc1)Nc1cccc(S(=O)(=O)N2CCCCC2)c1
The “hERG current change (%, negative = inhibition) at 10uM” value of the first is higher: 0.947% for the first, -19.6% for the second.

First: CCc1ccc(Nc2ncnc3nc[nH]c23)cc1
Second: COc1ccc(NC(=O)c2cc3cc(OC)ccc3oc2=O)cc1
The “hERG current change (%, negative = inhibition) at 10uM” value of the first is lower: -10.3% for the first, -0.497% for the second.

Compared with `CCCN(CCC)C(=O)Nc1ccc(F)cc1F`, `CCCc1cc2c(cc1NC(=O)c1ccccc1C)OCO2` is lower in “hERG current change (%, negative = inhibition) at 10uM” value: 23.4% for the first, 4.9% for the second.

First: CC(C)C(=O)Nc1ccccc1-c1nc2ccccc2[nH]c1=O
Second: CC(C)N(Cc1nc(-c2ccccc2)no1)C(=O)CN(C)S(=O)(=O)c1ccccc1
The “hERG current change (%, negative = inhibition) at 10uM” value of the first is lower: -15.8% for the first, -1.52% for the second.

Going from `Nc1cc2c(cc1[N+](=O)[O-])OCCOCCOCCO2` to `Cc1cccc(/C=C/C(=O)c2ccc(N3CCOCC3)cc2)c1`, the “hERG current change (%, negative = inhibition) at 10uM” value rises from 0.413% to 5.94%.

Going from `CCCn1c(N)c(N(CCOC)C(=O)c2ccccc2)c(=O)[nH]c1=O` to `O=C(CC1C(=O)NCCN1Cc1ccccc1)NCCC1=CCCCC1` (centres unmarked), the “hERG current change (%, negative = inhibition) at 10uM” value falls from 17% to 9.47%.

Compared with `OCCOCCn1c(C(CO)Nc2nc(-c3ccccc3Br)cs2)nc2ccccc21` (centres unmarked), `COc1ccc(-c2cc(C(=O)N/N=C/c3cccnc3)c3ccccc3n2)c(OC)c1` is higher in “hERG current change (%, negative = inhibition) at 10uM” value: -72% for the first, -25.5% for the second.

Going from `O=C(Nc1ccc(Cl)c(Cl)c1)Nc1ccccc1C(=O)O` to `CC(=O)c1ccc2c(c1)C1C(Cl)C(Sc3ccccc3[N+](=O)[O-])CC1C(C(=O)O)N2` (centres unmarked), the “hERG current change (%, negative = inhibition) at 10uM” value falls from 25% to -20.8%.

Going from `O=C(NC1CCOCC1)C1CCC(=O)N(Cc2cccc(C(F)(F)F)c2)C1` (centres unmarked) to `CC(OC(=O)C1CCN(S(=O)(=O)c2ccc(C(C)(C)C)cc2)CC1)C(=O)N1CCOCC1` (centres unmarked), the “hERG current change (%, negative = inhibition) at 10uM” value falls from 13.7% to -28%.

Going from `Cc1ccccc1Nc1nc(N)nc(CN2C(=O)NC3(CCCCC3C)C2=O)n1` (centres unmarked) to `Cc1ccc(-n2ncc3c(=O)[nH]c(SCC(=O)N4CCCC4)nc32)cc1C`, the “hERG current change (%, negative = inhibition) at 10uM” value rises from -12.4% to -1.75%.

Going from `CC1CN(Cc2ccc(C#N)cc2Cl)CC(C)O1.Cl` (centres unmarked) to `CC(C)CCNCC1OCc2ccccc2CO1.Cl`, the “hERG current change (%, negative = inhibition) at 10uM” value falls from 0.479% to -8.5%.

Compared with `CC(NC(=O)COC(=O)c1ccco1)c1ccccc1` (centres unmarked), `CCOC(=O)N1CCN(C(=O)c2ccc(CS(=O)c3ccccc3)o2)CC1` (centres unmarked) is higher in “hERG current change (%, negative = inhibition) at 10uM” value: -12% for the first, 9.81% for the second.

First: CC(=O)c1ccc(N/C=C\C(=O)c2ccc(C)cc2)cc1
Second: O=C(/C=C(\c1ccc(Cl)cc1)n1cncn1)c1ccc(Cl)cc1
The “hERG current change (%, negative = inhibition) at 10uM” value of the first is higher: 26.5% for the first, 2.44% for the second.

Compared with `COc1ccccc1NC(=O)C1CCCN(S(=O)(=O)c2cccc3nsnc23)C1` (centres unmarked), `CC1CCCCN1C(=O)C1CC(c2ccc(F)cc2)=NO1` (centres unmarked) is lower in “hERG current change (%, negative = inhibition) at 10uM” value: -10.2% for the first, -16.7% for the second.

Going from `Cc1cc(C)nc(Nc2nc3ccccc3o2)n1` to `Cc1ccc(OC(C)C(=O)N/N=C/c2ccccn2)cc1` (centres unmarked), the “hERG current change (%, negative = inhibition) at 10uM” value rises from -11.3% to 13.2%.

First: CC1(C)CC(N(Cc2ccccc2)C(=O)Cc2ccccc2)CCO1 (centres unmarked)
Second: CCOc1ccc(NC(=O)CN2CCN(CC(=O)Nc3ccc(F)cc3)CC2)cc1
The “hERG current change (%, negative = inhibition) at 10uM” value of the first is higher: 3.84% for the first, -77.2% for the second.

First: CCC(CC)C(=O)NCCCN1CCOCC1
Second: O=C(CSc1nc2cc(C(=O)O)ccc2c(=O)n1-c1ccc(F)cc1)Nc1ccc(F)c(F)c1F
The “hERG current change (%, negative = inhibition) at 10uM” value of the first is higher: 12.3% for the first, 1.54% for the second.
